The values that follow come from the supplement of paper PMC4967469.

Usually IC50 stands for the concentration that gives 50% inhibition.

By IC50 is meant the dose at which the fit gives 50% viability; a fit beyond the top or the lowest dose is shown as a bound at that dose. AUC sums up the same curve from the lowest dose to the 256-fold higher top dose; it is 1 without any effect and falls as sensitivity rises. For some assays here: Where the top dose is marked as inferred, it was derived from the fitted curves, not read from the paper. For some assays here: Drugs with an entry number were screened twice under separate entries, and the two screens often disagree. A value given as a limit tells only on which side of the number the result lay.

What all share (test): Viability of human cancer cell lines after 72 h of drug (GDSC screen)
Compound in one test: O=C(Nc1ccc(OC(F)(F)F)cc1)c1sccc1NCc1ccnc2ccccc12 [OSI-930]
The conditions noted are these: top dose 10.24 µM. The protocol:
(§1)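 Human cancer cell lines in 384-well plates, medium with 10% serum, drug for 72 h over a 256-fold dose range (nine 2-fold or five 4-fold steps up to the top dose). Adherent lines were fixed and stained with the nucleic acid dye Syto60, suspension lines read with resazurin; signal relative to control wells, capped at 0 and 100%. One two-parameter sigmoid per drug and line, fitted in a mixed model over all curves with the slope shared within a line.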

Compound in another test: CCCC(=O)OCc1ccc(OC(=O)/C=C(C)/C=C/C=C(C)/C=C/C2=C(C)CCCC2(C)C)cc1 [VNLG/124]
As to conditions: top dose 5.12 µM; top dose inferred. The protocol:
as §1

Compound in the next test: O=C(/C=C/c1ccc(CN(CCO)CCc2c[nH]c3ccccc23)cc1)NO [LAQ824]
The conditions noted are these: top dose 1.024 µM; top dose inferred. The protocol: as §1

Compound in another test: Cc1c(N)nc([C@H](CC(N)=O)NC[C@H](N)C(N)=O)nc1C(=O)N[C@H](C(=O)N[C@H](C)[C@@H](O)[C@H](C)C(=O)N[C@H](C(=O)NCCc1nc(-c2nc(C(=O)NCCC[S+](C)C)cs2)cs1)[C@@H](C)O)[C@@H](OC1OC(CO)C(O)C(O)C1OC1OC(CO)C(O)C(OC(N)=O)C1O)c1cnc[nH]1 [Bleomycin]
As for the experimental part:
as §1

Compound in the next test: O=C(Nc1cccc(Nc2ncc(Br)c(NCCc3cnc[nH]3)n2)c1)N1CCCC1 [BX-912]
The conditions noted are these: top dose 10.24 µM; top dose inferred. As for the experimental part: as §1

Compound in another test: Cc1ccc(NC(=O)c2ccc(CN3CCN(C)CC3)cc2)cc1Nc1nc(-c2cccnc2)cs1 [Masitinib]
As to conditions: top dose 20 µM. The protocol:
as §1

Compound in another test: CC/C(=C(\c1ccccc1)c1ccc(OCCN(C)C)cc1)c1ccccc1 [Tamoxifen]
The conditions noted are these: top dose 5 µM. The protocol: as §1

Compound in a further test: O=S(=O)(O)c1ccc2cc(N=Nc3cc(S(=O)(=O)O)c4cccnc4c3O)ccc2c1 [NSC-87877]
The conditions noted are these: top dose 16 µM; top dose inferred. As for the experimental part:
as §1

Compound in the next test: CN(NC(=O)CC(=O)NN(C)C(=S)c1ccccc1)C(=S)c1ccccc1 [Elesclomol]
As to conditions: top dose 0.2 µM; top dose inferred. As for the experimental part: as §1

Setting [1] is: top dose 50 µM, screen: GDSC drug entry 1378, top dose inferred.
Setting [2] is: top dose 64 µM, screen: GDSC drug entry 190.

Consider NUGC-3 (stomach, adherent), for which the AUC with OSI-930 was determined as 0.974; with VNLG/124 it was 0.98; with LAQ824, 0.449; with Bleomycin (setting [1]), 0.333; in the test with Bleomycin (setting [2]), 0.359; with BX-912, 0.96. For the same cell line, the AUC is 0.976 with Masitinib and 0.982 in the test with Tamoxifen. The half-inhibitory concentration (IC50) with OSI-930 is more than 10.2 µM; with VNLG/124, more than 5.12 µM; in the test with LAQ824, 0.0456 µM; with Bleomycin (setting [1]), 1.01 µM; with Bleomycin (setting [2]), 1.55 µM; with BX-912, more than 10.2 µM. Also, the IC50 was more than 20 µM with Masitinib and more than 5 µM with Tamoxifen.

Take HTC-C3 (thyroid, adherent): the AUC in the test with OSI-930 turned out to be 0.953; in the test with VNLG/124, 0.984; with NSC-87877 it was 0.984; with LAQ824 it was 0.491; with Bleomycin (setting [1]), 0.718; in the test with Bleomycin (setting [2]) it was 0.811. The AUC with BX-912 turned out to be 0.956; with Masitinib, 0.903; with Tamoxifen, 0.966. Besides, the half-maximal inhibitory concentration (IC50) is more than 10.2 µM with OSI-930; more than 5.12 µM in the test with VNLG/124; more than 16 µM with NSC-87877; 0.0603 µM in the test with LAQ824; 14.1 µM with Bleomycin (setting [1]); 39.3 µM in the test with Bleomycin (setting [2]). Further, the values for the 50% inhibitory concentration (IC50) with BX-912, with Masitinib and in the test with Tamoxifen were more than 10.2 µM, more than 20 µM and more than 5 µM, respectively.

HT-144 (melanoma, adherent): the AUC with OSI-930 turned out to be 0.975; in the test with VNLG/124, 0.981; in the test with NSC-87877, 0.984; with LAQ824 it was 0.266; with Bleomycin (setting [1]) it was 0.452; in the test with Bleomycin (setting [2]) it was 0.141. For the same cell line, the AUC amounted to 0.984 with BX-912, 0.862 in the test with Masitinib and 0.97 with Tamoxifen. Moreover, the IC50 with OSI-930 is more than 10.2 µM; in the test with VNLG/124 it was more than 5.12 µM; with NSC-87877, more than 16 µM; in the test with LAQ824, 0.0126 µM; in the test with Bleomycin (setting [1]), 2.27 µM; with Bleomycin (setting [2]) it was 0.251 µM. In addition, the 50% inhibitory concentration (IC50) with BX-912 was more than 10.2 µM; with Masitinib, more than 20 µM; with Tamoxifen it was more than 5 µM.

For the cell line SW1116 (large intestine, adherent), the AUC in the test with OSI-930 stood at 0.985; with VNLG/124, 0.982; in the test with Bleomycin (setting [1]) it was 0.898; with BX-912, 0.981; in the test with Masitinib, 0.986; with Tamoxifen, 0.984. In addition, the IC50 is more than 10.2 µM in the test with OSI-930; more than 5.12 µM with VNLG/124; more than 50 µM with Bleomycin (setting [1]); more than 10.2 µM with BX-912; more than 20 µM with Masitinib; more than 5 µM with Tamoxifen.

Take “NCI-H1650 (lung adenocarcinoma, adherent)”: in the test with Bleomycin (setting [1]), the AUC is 0.687 and the IC50 amounted to 12.4 µM. In the test with Tamoxifen, the AUC worked out at 0.967 and the half-maximal inhibitory concentration (IC50) is more than 5 µM.

Take SNU-1040 (large intestine, adherent): the AUC in the test with OSI-930 is 0.979; with VNLG/124, 0.956; with Bleomycin (setting [1]) it was 0.974; with BX-912, 0.907; with Masitinib, 0.868; in the test with Tamoxifen, 0.973. Moreover, the IC50 was more than 10.2 µM with OSI-930; more than 5.12 µM in the test with VNLG/124; more than 50 µM with Bleomycin (setting [1]); more than 10.2 µM with BX-912; more than 20 µM with Masitinib; more than 5 µM with Tamoxifen.

With Ca-Ski (cervix, adherent), the AUC stood at 0.895 with OSI-930; 0.981 in the test with VNLG/124; 0.981 with NSC-87877; 0.456 with LAQ824; 0.346 in the test with Bleomycin (setting [1]); 0.313 in the test with Bleomycin (setting [2]). The AUC with BX-912 came out at 0.698; with Masitinib, 0.791; with Elesclomol it was 0.578. Also, the concentration for half-maximal inhibition (IC50) is more than 10.2 µM with OSI-930; more than 5.12 µM with VNLG/124; more than 16 µM with NSC-87877; 0.0478 µM with LAQ824; 1.11 µM in the test with Bleomycin (setting [1]); 1.12 µM with Bleomycin (setting [2]). The IC50 in the test with BX-912 came to 2.48 µM; in the test with Masitinib, 10.2 µM; in the test with Elesclomol it was 0.021 µM.

As for OVCAR-5 (ovary, adherent), the AUC with OSI-930 was 0.98; in the test with VNLG/124, 0.982; with NSC-87877 it was 0.959; with LAQ824 it was 0.272; in the test with Bleomycin (setting [1]), 0.301; with Bleomycin (setting [2]) it was 0.476. Also, the AUC came out at 0.889 with BX-912, 0.938 with Masitinib and 0.237 with Elesclomol. For the same cell line, the 50% inhibitory concentration (IC50) in the test with OSI-930 was more than 10.2 µM; with VNLG/124 it was more than 5.12 µM; in the test with NSC-87877, more than 16 µM; with LAQ824, 0.0124 µM; in the test with Bleomycin (setting [1]), 0.764 µM; in the test with Bleomycin (setting [2]) it was 3.4 µM. Also, the IC50 is more than 10.2 µM in the test with BX-912, more than 20 µM with Masitinib and 0.00181 µM with Elesclomol.

CAL-85-1 (breast, adherent): the AUC with OSI-930 is 0.906; with VNLG/124 it was 0.981; with NSC-87877 it was 0.828; in the test with LAQ824 it was 0.266; with Bleomycin (setting [1]) it was 0.913; with Bleomycin (setting [2]), 0.038. Also, the AUC came out at 0.891 with BX-912, 0.863 with Masitinib and 0.757 with Elesclomol. Also, the IC50 in the test with OSI-930 was more than 10.2 µM; with VNLG/124 it was more than 5.12 µM; in the test with NSC-87877 it was 14 µM; with LAQ824, 0.0112 µM; with Bleomycin (setting [1]), more than 50 µM; in the test with Bleomycin (setting [2]), less than 0.25 µM. For the same cell line, the IC50 with BX-912 is more than 10.2 µM; with Masitinib it was more than 20 µM; with Elesclomol it was 0.0874 µM.
